Results taken from PubChem BioAssay AID759 (NMMLSC, 2007).
Screen size: about 190,000 compounds; about 270 (0.14%) were called active. This list was built around the results that the source calls inconclusive (neither active nor inactive); the mix of calls is not that of the screen.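 How the source made its calls: active means GTP binding activity at least 20% away from the 100% baseline, either lowered as inhibitor or raised as activator; inconclusive means flagged as likely green fluorescent, judged across all proteins in the well; inactive means the rest.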

Target: GTPase HRas (Homo sapiens) (UniProt P01112)
Chain of UniProt P01112 (P01112 whole entry, looked up): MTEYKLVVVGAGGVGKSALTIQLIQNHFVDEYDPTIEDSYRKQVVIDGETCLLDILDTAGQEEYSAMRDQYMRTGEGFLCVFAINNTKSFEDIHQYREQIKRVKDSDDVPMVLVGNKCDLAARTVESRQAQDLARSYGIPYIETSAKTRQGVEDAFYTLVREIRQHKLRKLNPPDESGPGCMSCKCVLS
Assay: HRas wt fluorescent GTP binding changes, either direction – biochemical, wildtype, bead-based flow cytometry, multiplex, primary screen (AID 759);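 further: 0% = unlabeled GTP competition control and 100% = no-compound control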
Settings: GST-Ras wt beads, Bodipy-FL-GTP binding, at 10 µM, actives lie on both sides

Row | Structure (SMILES) | GTP binding activity
1 | Fc1ccc(CNCc2ccccc2Cl)cc1 | inconclusive: 91%
2 | COc1ccc(NC(=S)NC(NC(=O)c2ccc(Cl)cc2Cl)C(Cl)(Cl)Cl)c([N+](=O)[O-])c1 (centres undefined) | inconclusive: 95%
3 | CCOc1ccc(C2N(c3ccc(F)cc3)C(=O)C3CCCN32)cc1OC (centres undefined) | inconclusive: 101%
4 | O=C(CSc1nnc(-c2ccncc2)n1-c1ccc(Cl)cc1)Nc1ccc(C(=O)O)cc1 | inconclusive: 88%
5 | COc1ccc2[nH]c(C(=O)O)c(CCNC(C)=O)c2c1 | inconclusive: 96%
6 | C=CCNC(=S)/C(=C(/[O-])c1ccccc1Br)[n+]1ccccc1 | inconclusive: 94%
7 | COc1cc(/C=N/NC(=O)c2ccoc2C)cc(OC)c1O | inconclusive: 101%
8 | CSc1ccccc1C(=O)N1CCN(c2ncccn2)CC1 | inactive: 94%
9 | Cc1csc(NC(=O)CNS(=O)(=O)c2cccs2)n1 | inconclusive: 107%
10 | CCC(C)/C=C/C1=CC2=C(Cl)C(=O)C3(C)OC(=O)C(C(=O)C(C)C(C)O)C3C2=CO1 (centres undefined) | inactive: 93%
11 | CCC(C)(C)NC(=O)C(c1cccnc1)N(CCOC)C(=O)Cn1nnc2ccccc21 (centres undefined) | inconclusive: 103%
12 | O=C(CNCc1cccs1)Nc1ccc(N2CCCCCC2)cc1 | inactive: 94%
13 | Cc1cc(N2CC(C(=O)O)CC2=O)ccc1Br (centres undefined) | inconclusive: 106%
14 | COc1ccc(-c2nc(Cc3ccc(Cl)cc3)no2)cc1OC | inconclusive: 103%
15 | COC1(OC)C(/C=C/c2ccc(C)cc2)C(C#N)(C#N)C1(OC)OC (centres undefined) | inconclusive: 103%
16 | COc1ccccc1OCCn1c(C(C)O)nc2ccccc21 (centres undefined) | inconclusive: 89%
17 | Cc1cc(Br)ccc1SCC(=O)OCC(=O)NC1CCCC1 | inactive: 102%
18 | O=C(CN1C(=O)NC2(CCCCC2)C1=O)N1CCc2ccccc2C1 | inconclusive: 93%
19 | COCCNC(=O)c1cc(S(=O)(=O)N2CCOCC2)ccc1SCc1cccc(OC)c1OC | inactive: 100%
20 | CCOC(=O)Nc1ccc(NC(=O)OCC)cc1 | inconclusive: 104%
21 | Cc1ccc(NC(=O)C(C)NS(=O)(=O)c2ccc(F)cc2)cc1C (centres undefined) | inactive: 103%
22 | CCN(CC(=O)NC(C)C)C(=O)[C@H](C)NC(=O)c1ccc(Br)cc1 | inactive: 95%
23 | Cc1cc(C)nc(NS(=O)(=O)c2ccc(N/C=C/C(=O)c3ccc(Cl)cc3)cc2)n1 | inactive: 98%
24 | CCc1cccc2c(C#N)cn(CC(=O)NCCOC)c12 | inconclusive: 95%

Row | Structure (SMILES) | GTP binding activity
25 | CCc1ccc(C2=NN(S(C)(=O)=O)C(c3cccs3)C2)cc1 (centres undefined) | inconclusive: 112%
26 | CCOc1ccc(NC(=O)CSc2nc3c([nH]c4ccccc43)c(=O)n2C)cc1 | inconclusive: 96%
27 | CCCNC(=O)COC(=O)/C=C/c1ccc(C)o1 | inactive: 98%
28 | O=C1CC(C(=O)N2CCC(N3CCC(C(=O)NC4CC4)CC3)CC2)c2ccccc21 (centres undefined) | inactive: 96%
29 | CCN1CCCC1CNC(=O)CSc1cc(=O)n(CC)c2ccccc12 (centres undefined) | inconclusive: 104%
30 | O=C(CSc1ncnc2ccccc12)NCCc1ccccc1 | inconclusive: 97%
31 | O=[N+]([O-])c1ccc(/C=C/C2=NN(c3ccccc3)C(c3ccco3)C2)cc1 (centres undefined) | inconclusive: 146%
32 | Cc1ccc2nc(N(CCCN(C)C)C(=O)c3ccco3)sc2c1 | inconclusive: 998%
33 | C=CCN(c1ccccc1)S(=O)(=O)c1cccc(C(=O)Oc2ccc3c(C)cc(=O)oc3c2)c1 | inconclusive: 102%
34 | O=C(Nc1ccccc1)N1CCCC(c2nc(-c3ccc(F)cc3)no2)C1 (centres undefined) | inconclusive: 102%
35 | COC(=O)C1=C(C(=O)OC)C(c2cc([N+](=O)[O-])ccc2O)c2sc(=O)[nH]c2S1 (centres undefined) | inconclusive: 89%
36 | O=C(NNC(=O)C1CCCN(S(=O)(=O)c2cccc(F)c2)C1)C1CC1 (centres undefined) | inconclusive: 94%
37 | O=C1CC(c2ccccc2)CC(O)=C1C=NCCN1CCN(C(=O)Nc2ccccc2)CC1 (centres undefined) | inconclusive: 104%
38 | C/C(=N\Nc1cccc([N+](=O)[O-])c1)c1ccccc1O | inconclusive: 96%
39 | O=C(CSc1nc2ccccc2[nH]1)NC1CCS(=O)(=O)C1 (centres undefined) | inconclusive: 105%
40 | CC(C(=O)N1CCOCC1)N1C(=O)c2cccc3cccc(c23)C1=O (centres undefined) | inactive: 96%
41 | COC(=O)CCC(=O)NNC(=O)Cc1ccccc1 | inactive: 101%
42 | Cn1c(=O)n(Cc2ccc(Cl)cc2)c2ccccc21 | inactive: 99%
43 | Clc1ccc(Cl)c(OCc2cc(-c3ccccc3Cl)on2)c1 | inconclusive: 104%
44 | Clc1cccc(Cc2nn[nH]n2)c1 | inactive: 99%
45 | CC1(O)CC(=O)N(c2ccccc2)O1 (centres undefined) | inconclusive: 109%
46 | Cc1cccc(NC(=O)CC2Nc3cccc4cccc(c34)NC2=O)c1 (centres undefined) | inconclusive: 108%
47 | CCOc1ccc(C(=O)c2ccc([N+](=O)[O-])cc2Cl)cc1 | inconclusive: 91%
48 | S=c1ccc2ccccc2[nH]1 | inactive: 98%

Row | Structure (SMILES) | GTP binding activity
49 | CC(C)(C)c1cc(C(=O)NCCN2CCCC2)cc(C(C)(C)C)c1 | inactive: 100%
50 | Cc1cc(C(=O)CSc2nn3c(=O)c(C(C)(C)C)nnc3s2)c(C)n1C | inactive: 98%
51 | CC1Cc2ccccc2N1CC(=O)NC(=O)NCc1ccco1 (centres undefined) | inconclusive: 96%
52 | COc1ccc(/C=C2\CCn3c2nc2cc(C(=O)O)ccc2c3=O)cc1O | inconclusive: 90%
53 | O=c1[nH]c(N2CCc3ccccc3C2)nc2c1CCC2 | inconclusive: 94%
54 | CCCCC(=O)Nc1cccc(NC(=O)C(C)C)c1 | inconclusive: 103%
55 | CCOc1ccccc1C(=O)Nc1nn[nH]n1 | inconclusive: 92%
56 | COc1ccc(CC(=O)c2ccccc2C(=O)O)cc1 | active: 126% [activator]
57 | Cc1ccc(OCc2ccc(C(=O)Nc3ccc(C(N)=O)cc3)o2)c([N+](=O)[O-])c1 | inconclusive: 97%
58 | CCN1CCN(C(=O)CN(C)S(=O)(=O)c2ccc3ccccc3c2)CC1 | inconclusive: 95%
59 | COc1ccc(Nc2nc(Nc3ccc(OC)cc3OC)nc(N3CCN(C)CC3)n2)c(OC)c1 | inactive: 101%
60 | COCCSc1ccccc1C(=O)Nc1cc(C)on1 | inconclusive: 106%
61 | Cc1ccc2cc3cc(C(=O)N4CC(C)CC(C)C4)oc3nc2c1 (centres undefined) | inconclusive: 102%
62 | CC(C)c1csc(CN2CCC(N3CCC(C(=O)N4CCOCC4)CC3)CC2)n1 | inactive: 96%
63 | O=C(O)CC(Cc1ccccc1)C(=O)NCC12CC3CC(CC(C3)C1)C2 (centres undefined) | inactive: 95%
64 | COc1ccccc1NC(=O)C1=C(C)NC(=O)NC1c1cccc(OC)c1OC (centres undefined) | inconclusive: 116%
65 | CC(C)[C@H](NC(=O)NCCc1ccc(F)cc1)C(=O)O | inactive: 105%
66 | Cc1ccc(OCc2nnc(SCC(=O)c3cccs3)n2-c2ccccc2)cc1C | inconclusive: 103%
67 | Cc1nnc2c3ccccc3c(Cl)nn12 | inactive: 95%
68 | C(=N\Nc1nc(N2CCCC2)nc(N2CCCC2)n1)/c1ccccc1OCc1ccccc1 | inconclusive: 95%
69 | Cc1ccc(S(=O)(=O)N(C)CCCC(=O)NC(C)(C)C)cc1 | inactive: 100%
70 | COc1ccccc1-c1c(C)oc2cc(OCC(=O)OCc3ccccc3)ccc2c1=O | inconclusive: 105%
71 | Cc1ccc(-c2csc3nc(C)n(N)c(=O)c23)cc1 | inactive: 96%
72 | COC(=O)CN(c1nc(C)cc(OC)n1)S(=O)(=O)c1ccccc1 | inconclusive: 103%

Row | Structure (SMILES) | GTP binding activity
73 | Cc1nc2ncccn2c1-c1csc(Nc2ccccc2)n1 | active: 59%
74 | Cc1ccc(S(=O)(=O)N2CCCCC2)cc1NC(=O)COC(=O)Cc1ccc(Cl)cc1 | inconclusive: 91%
75 | C[n+]1ccc(C(=O)N/N=C/c2ccco2)cc1 | inactive: 103%
76 | O=C(O)CCCCNS(=O)(=O)/C=C/c1ccccc1 | inconclusive: 99%
77 | CC1CCN(C(C)C(=O)Nc2ccccc2-c2ccccc2)CC1 (centres undefined) | inconclusive: 107%
78 | CCN1/C(=C2/SC(=S)NC2=O)Sc2ccccc21 | inconclusive: 91%
79 | CCCS(=O)(=O)N1CCC(C(=O)N2CCOCC2)CC1 | inconclusive: 100%
80 | CC(=O)c1ccc(NC(=S)NCc2ccc(Cl)cc2Cl)cc1 | inactive: 95%
81 | CC1=CC(=O)C=C(C)C1=NOc1ccccc1[N+](=O)[O-] | inactive: 97%
82 | COCCN1C(=S)NC(c2cccc(C(F)(F)F)c2)C(C(=O)N2CCOCC2)=C1C (centres undefined) | inactive: 92%
83 | CN(Cc1cc2cc(F)ccc2[nH]1)Cc1nc(-c2cnccn2)no1 | inactive: 98%
84 | Cc1ccc2c(c1)c1c(n2CC(O)Cn2nc(C)c(Br)c2C)C(=O)CCC1 (centres undefined) | inconclusive: 94%
85 | CCOC(=O)c1c(NC(=O)CSc2nnc(CNc3ccc(F)cc3)o2)sc(C)c1C | inconclusive: 105%
86 | O=C(NC1CC1)C1=C[C@H](c2ccc(C(F)(F)F)cc2)C[C@H](OCc2ccc(CO)cc2)O1 | inconclusive: 94%
87 | Cc1ccnc(NS(=O)(=O)c2ccc(NC(=O)C3C4C=CC(C4)C3C(=O)O)cc2)n1 (centres undefined) | inactive: 99%
88 | COc1cc(/C=N/NC(=O)CSc2n[nH]c(=O)[nH]c2=O)cc(OC)c1O | inconclusive: 75%
89 | O=C(O)c1cc2nc(-c3ccc(F)cc3)cc(C(F)(F)F)n2n1 | inconclusive: 90%
90 | COc1ccc(NC(=O)CN(C)C2CCCCC2)c([N+](=O)[O-])c1 | inactive: 99%
91 | c1ccc(Cn2c(NCc3ccncc3)nc3ccccc32)cc1 | inactive: 100%
92 | Fc1ccc(-n2c(-c3ccc4ccccc4n3)n[nH]c2=S)cc1Cl | inconclusive: 92%
93 | CCC(=O)N(c1ccc(C(=O)O)cc1)c1nc(-c2ccc(OC)cc2)c(C)s1 | inconclusive: 91%
94 | CCCNC(=S)N1CCC(n2cnc3ccccc32)CC1 | inconclusive: 102%
